# Measurements reported in PubChem BioAssay AID504339 (National Center for Advancing Translational Sciences (NCATS), 2011).
# Several values for one entry are separate records, joined by “and”; a condition that tells them apart may be missing. Equal entries are not always repeated. The whole screen tested about 390,000 compounds, of which about 17,000 (4.4%) were called active. The shares of active, inactive and inconclusive entries below differ from those in the screen. Calls come from the whole dose curve; as a rule, active = well fitted inhibition curve with a large enough effect; inconclusive = small, poorly fitted or top-dose-only effect; inactive = no such curve, though single readings can be large or run the other way. Where the call is inconclusive, the potency comes from a doubtful curve fit.
# Molecular target: Lysine-specific demethylase 4A (Homo sapiens) (UniProt O75164)
# Assay: qHTS Assay for Inhibitors of JMJD2A-Tudor Domain; note: nearly all actives have a fitted effect of over 50% in size
# Conditions: AlphaScreen JMJD2A-Tudor / H3K4me3 peptide binding; activity change, negative = inhibition: at 114 µM (top of the series)
# % is set by controls: 0 for no effect and ±100 for the full control effect; potency is the fitted concentration of half-maximal effect; tags give direction and shape of the fitted curve.
# UniProt O75164, sequence (O75164 whole entry, looked up, the tested form may be a part): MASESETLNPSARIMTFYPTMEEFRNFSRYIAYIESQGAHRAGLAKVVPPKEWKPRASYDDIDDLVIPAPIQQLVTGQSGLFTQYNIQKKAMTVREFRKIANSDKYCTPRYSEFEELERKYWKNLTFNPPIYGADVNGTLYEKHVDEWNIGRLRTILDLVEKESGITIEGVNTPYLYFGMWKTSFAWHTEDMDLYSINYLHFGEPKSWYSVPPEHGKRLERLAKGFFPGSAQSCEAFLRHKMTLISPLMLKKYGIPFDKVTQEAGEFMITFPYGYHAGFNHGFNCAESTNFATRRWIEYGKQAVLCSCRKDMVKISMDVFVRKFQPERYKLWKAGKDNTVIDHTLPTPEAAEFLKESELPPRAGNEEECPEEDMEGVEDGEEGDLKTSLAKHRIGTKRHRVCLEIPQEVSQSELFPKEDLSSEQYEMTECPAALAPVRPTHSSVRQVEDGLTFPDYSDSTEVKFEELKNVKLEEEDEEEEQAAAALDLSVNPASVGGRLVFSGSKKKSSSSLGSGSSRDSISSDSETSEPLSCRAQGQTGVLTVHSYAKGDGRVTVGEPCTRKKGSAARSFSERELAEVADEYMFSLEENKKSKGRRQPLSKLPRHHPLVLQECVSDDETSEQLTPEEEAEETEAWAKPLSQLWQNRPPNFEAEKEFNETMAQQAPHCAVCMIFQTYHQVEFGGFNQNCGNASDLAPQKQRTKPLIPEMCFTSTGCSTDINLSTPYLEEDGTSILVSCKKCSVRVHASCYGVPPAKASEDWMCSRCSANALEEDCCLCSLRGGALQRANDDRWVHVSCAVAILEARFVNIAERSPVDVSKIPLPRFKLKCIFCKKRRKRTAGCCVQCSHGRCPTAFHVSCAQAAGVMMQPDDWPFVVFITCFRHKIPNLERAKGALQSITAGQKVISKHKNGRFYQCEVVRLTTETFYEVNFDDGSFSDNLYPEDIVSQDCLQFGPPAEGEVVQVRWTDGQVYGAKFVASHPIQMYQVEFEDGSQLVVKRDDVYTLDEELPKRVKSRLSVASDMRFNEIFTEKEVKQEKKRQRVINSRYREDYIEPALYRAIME
Compound,"activity change, negative = inhibition",Potency
CCC(C)[C@H](NC(=O)N1CCC(Cc2ccccc2)CC1)C(=O)O (stereo partly drawn),inactive: 6.04%,–
CCCCCCCN1CCC(=O)N([C@H](CO)CC(C)C)CC1,inactive: -18.8%,–
COc1ccc(Cl)cc1NC(=O)c1c(NCc2ccc(C)o2)sc2c1CCCC2,–,"inconclusive: 28.2 µM [inhibitor, partial curve]"
Cc1ccc(C(=O)c2coc3c2C(=O)C(=O)c2ccccc2-3)cc1,–,"inconclusive: 39.8 µM [inhibitor, partial curve]"
COc1cc(/C=C/c2ccc3cccc(O)c3n2)ccc1O,–,"inconclusive: 44.7 µM [inhibitor, partial curve]"
CC(C)Oc1ccc(CNC(=O)c2ccc3nc(Cc4ccccc4)oc3c2)cc1,inactive: -7.67%,–
Clc1ccc(C(c2ccccc2Cl)C(Cl)Cl)cc1 (stereo not drawn),inactive: 76.6%,–
COc1ccc(C(CCN2CCN(c3ccccc3)CC2)c2c(OC)cc(OC)c3c(-c4ccccc4)cc(=O)oc23)cc1 (stereo not drawn),–,"inconclusive: 14.1 µM [inhibitor, full curve] and inconclusive: 7.94 µM [inhibitor, full curve]"
COC(=O)C1CCN(C(=O)c2cc(-c3ccco3)nc3ccccc23)CC1,–,active: 28.2 µM
COc1ccc(OC)c(CCNC(=O)c2cccc(NC(=O)C3=C(C)OCCS3)c2)c1,–,"inconclusive: 44.7 µM [inhibitor, partial curve]"
O=S1(=O)N=C(Oc2cccc3ccccc23)c2ccccc21,–,"inconclusive: 63.1 µM [inhibitor, partial curve] and inconclusive: 89.1 µM [inhibitor, partial curve]"
O=S(=O)(O)c1cccc2cccc(Nc3ccccc3)c12,–,active: 50.1 µM
CC1CCCN(Cc2c(O)ccc3c2O/C(=C\c2ccco2)C3=O)C1 (stereo not drawn),–,"inconclusive: 79.4 µM [inhibitor, single point]"
CCN1CCc2c(sc(NC(=S)NC(=O)c3ccc(Cl)cc3)c2C(N)=O)C1,–,"inconclusive: 17.8 µM [inhibitor, full curve]"
Cc1ccc2nc3c(c(Nc4ccc(O)cc4)c2c1)CCC3,inactive: -22.5%,–
Cc1ccc(Cl)c(OCCCCN(C)Cc2ccccc2)c1,–,active: 2.82 µM
COc1ccc2[nH]c3c(=O)n(Cc4ccc(C(=O)N5CCC(C(N)=O)CC5)cc4)c(=S)[nH]c3c2c1,–,active: 3.98 µM
Oc1ccc(/C=N\Nc2cc(N3CCOCC3)nc(N3CCOCC3)n2)c(O)c1,–,"inconclusive: 63.1 µM [inhibitor, partial curve, poor fit]"
O=C1NC(=S)SC1=Cc1ccccc1Cl,–,"inconclusive: 12.6 µM [inhibitor, partial curve, poor fit]"
CN1N=C(C(=O)N=c2sc3ccccc3n2C)CCC1=O,inactive: -2.1%,–
CC1=NN(c2ccccc2)C(=O)C1C(=O)C(=O)Nc1ccc(F)cc1 (stereo not drawn),inactive: -22.1%,–
COCCCNC(=S)N/N=C/c1cccc(OC)c1O,–,"inconclusive: 56.2 µM [inhibitor, partial curve]"
CNS(=O)(=O)c1cccc(C(=O)OCC(=O)/C=C2/N(C)c3ccccc3C2(C)C)c1,–,"inconclusive: 70.8 µM [inhibitor, single point]"
COCCNC(=S)N/N=C/c1ccccc1C(=O)O,–,"inconclusive: 44.7 µM [inhibitor, partial curve]"
CCc1ccc(NC(=O)Cn2c(-c3cncs3)nc3ccccc32)cc1,–,"inconclusive: 11.2 µM [inhibitor, full curve, poor fit]"

Compound,"activity change, negative = inhibition",Potency
N#Cc1cccc(CS(=O)(=O)c2ccc(Cl)cc2)c1,inactive: 7.47%,–
COc1ccc(NC(=O)CSc2nc3sc4c(c3c(=O)n2-c2ccc(OC)cc2)CCN(C)C4)cc1,–,"inconclusive: 50.1 µM [inhibitor, partial curve]"
COc1ccccc1NS(=O)(=O)c1cccc(NC(=S)NCCN2CCOCC2)c1,inactive: -10.5%,–
Cc1nccn1CCOc1ccc(Cl)cc1,–,active: 4.47 µM
CCCCCNC(=O)c1c[nH]c2ccc(S(=O)(=O)N3CCC4(CC3)OCCO4)cc2c1=O,–,"inconclusive: 39.8 µM [inhibitor, full curve]"
C/C=C/C=C\C(=O)Nc1cccc(C2=NOC3(C2)C[C@H](C(N)=O)N(C(=O)CC#N)C3)c1 (stereo partly drawn),–,"inconclusive: 56.2 µM [inhibitor, partial curve, poor fit]"
COc1cc(SC)ccc1C(=O)N1CC(C)OC(C)C1 (stereo not drawn),inactive: -13%,–
Cc1ccc(O)c(C(=O)c2cc(C(=O)NCCc3ccccc3)c(=O)n(CCc3ccccc3)c2)c1,inactive: -21.9%,–
O=C(CN1C(=O)COc2ccc(S(=O)(=O)N3CCOCC3)cc21)NCc1ccco1,inactive: -0.685%,–
CCCN1CCC(=O)N(C(CSc2ccc(Br)cc2)Cc2ccccc2)CC1 (stereo not drawn),–,"inconclusive: 50.1 µM [inhibitor, partial curve]"
CN(C)CCCNc1ncnc2sc(-c3ccccc3)cc12,–,active: 5.62 µM
COc1ccccc1CNC(=O)c1cc(C)nc2ccccc12,–,"inconclusive: 39.8 µM [inhibitor, single point]"
CCCn1c(N)c(N(CCOC)C(=O)c2cc(C)cc(C)c2)c(=O)[nH]c1=O,inactive: -2.76%,–
COc1ccc(Cl)cc1N1C(=O)CN(Cc2cc(OC)c(OC)c(OC)c2)C1=S,–,"inconclusive: 14.1 µM [inhibitor, full curve, poor fit]"
Oc1c(Cl)cccc1C=Nc1cc(C(F)(F)F)ccc1N1CCCC1,–,"inconclusive: 56.2 µM [inhibitor, partial curve]"
COc1ccccc1/C=C/C=N/n1c(-c2ccc(Cl)cc2Cl)n[nH]c1=S,–,"inconclusive: 50.1 µM [inhibitor, partial curve]"
CC(C)(C)c1cc(CCC(=O)NNC(=S)NC(=O)c2ccccc2)cc(C(C)(C)C)c1O,–,"inconclusive: 50.1 µM [inhibitor, partial curve]"
CC(C)c1ccc(OCc2cc(=O)n3c(-c4ccccc4)csc3n2)cc1,inactive: -21.2%,–
c1cc(CNCCN2CCNCC2)ccn1,inactive: -9.66%,–
Cc1ccc(-n2c(C)cc(/C=C3\NC(=O)NC3=O)c2C)c(C)c1,–,active: 35.5 µM
CCOC(=O)c1ccc(NC(=O)c2nn(C)c3c2COc2ccccc2-3)cc1,–,"inconclusive: 14.1 µM [inhibitor, full curve]"
COc1cc(-c2cc(OC)c3c(C)oc(C)c3c(=O)c2)ccc1OC(=O)c1cccc(Cl)c1,–,"inconclusive: 79.4 µM [inhibitor, partial curve]"
Cc1ccccc1OCC(=O)NN1CCN(C)CC1,inactive: -10.7%,–
CCc1nc(SCC(=O)Nc2cc(OC)ccc2OC)c2c(C)c(C)sc2n1,–,"inconclusive: 17.8 µM [inhibitor, full curve, poor fit]"
COc1ccc(-c2nn(-c3ccccc3)cc2/C=N/N2C(=O)CSC2=S)cc1,inactive: -27.6%,–

Compound,"activity change, negative = inhibition",Potency
C/C(=N\Nc1ccc(Cl)c(C(=O)O)c1)c1cccc2ccccc12,–,active: 56.2 µM
COc1ccc(N2CCN(c3csc4ccccc4c3=O)CC2)cc1,–,active: 39.8 µM
COc1ccc(/C=N/Nc2cc(C)nc3ccc(Br)cc23)cc1,–,"inconclusive: 79.4 µM [inhibitor, partial curve]"
CC1(C)CC(=O)C(/C=N/n2cnc3ccccc3c2=O)=C(O)C1,–,active: 39.8 µM
CC(C)Oc1ccc(NC(=O)Oc2ccccc2)cc1,inactive: -13.8%,–
Cc1ccccc1-n1ccnc1SCC(=O)NC1CCCC1,inactive: -15.3%,–
CN(C)CCCN=Cc1c(-c2ccccc2)[nH]n(-c2nc3ccccc3s2)c1=O,inactive: -21.1%,–
O=C(NCC(c1ccco1)N1CCCC1)c1cccc(S(=O)(=O)Nc2ccc(Br)cc2)c1 (stereo not drawn),–,"inconclusive: 31.6 µM [inhibitor, full curve]"
Cc1cc(C2=NNC(=Nc3ccccc3)SC2)c(C)n1C,–,"inconclusive: 56.2 µM [inhibitor, partial curve]"
Cc1ccc2c(c1)N(CCCC(=O)NCc1cccc(F)c1)C(=O)CO2,inactive: -10.1%,–
Oc1cccc(NC(=S)N=Nc2c(O)[nH]c3ccc(Br)cc23)c1,–,"inconclusive: 20 µM [inhibitor, full curve]"
COc1ccccc1S(=O)Cc1ccc(C(=O)NCc2ccccc2Cl)o1 (stereo not drawn),–,active: 35.5 µM
COc1ccc(/C=N/n2cnn(Cc3ccccc3Cl)c2=S)cc1OC,inactive: -26.4%,–
O=C(/C=C/c1ccccc1)C1=C(O)C(=O)N(CCO)C1c1ccccc1[N+](=O)[O-] (stereo not drawn),–,"inconclusive: 39.8 µM [inhibitor, partial curve]"
CCCCNC(=O)N(O)C1N(/N=C/c2ccc(N(C)C)cc2)C(=S)SC1(C)C (stereo not drawn),–,"inconclusive: 6.31 µM [inhibitor, partial curve]"
O=C(Nc1cccnc1)C12CC3CC(CC(C3)C1)C2,inactive: -14.3%,–
O=C(O)c1ccc(NC2=C/C(=N/S(=O)(=O)c3ccccc3)c3ccccc3C2=O)cc1,–,active: 50.1 µM
CCC(CC)N1CCN(S(=O)(=O)c2ccc(OC)cc2)CC1,–,active: 1.58 µM
Cc1cccc(Cc2c(C)nc3nc(SCC(=O)NCc4ccco4)nn3c2C)c1,inactive: -25%,–
CCOc1cccc(CN(C)CC2CCCN(CCc3ccc(Cl)cc3)C2)c1O (stereo not drawn),–,"inconclusive: 39.8 µM [inhibitor, partial curve]"
Cc1ccc(C(=O)C2=C(O)C(=O)N(Cc3cccnc3)C2c2cccc([N+](=O)[O-])c2)o1 (stereo not drawn),–,"inconclusive: 20 µM [inhibitor, single point]"
COc1ccc(S(=O)(=O)c2cnc(SCC(=O)Nc3cc(F)ccc3C)[nH]c2=O)cc1Cl,–,"inconclusive: 56.2 µM [inhibitor, partial curve]"
Cc1ccc2cc(CN(Cc3ccco3)S(=O)(=O)c3c(C)ccc4nsnc34)c(=O)[nH]c2c1,–,"inconclusive: 20 µM [inhibitor, full curve, poor fit]"
